From PMC4336329 (PLoS ONE, 2015)
Out of some 310,000 compounds screened, about 2,200 (0.71%) showed an effect of 50% or more. The effect is printed as a negative number. The list shows a part of the results.

These compounds were tested against human ether-à-go-go-related gene (hERG) potassium channel (human, UniProt Q12809) (assay: primary screen, population patch clamp on CHO cells stably expressing hERG).
Chain of human ether-à-go-go-related gene (hERG) potassium channel (Q12809 whole entry, looked up): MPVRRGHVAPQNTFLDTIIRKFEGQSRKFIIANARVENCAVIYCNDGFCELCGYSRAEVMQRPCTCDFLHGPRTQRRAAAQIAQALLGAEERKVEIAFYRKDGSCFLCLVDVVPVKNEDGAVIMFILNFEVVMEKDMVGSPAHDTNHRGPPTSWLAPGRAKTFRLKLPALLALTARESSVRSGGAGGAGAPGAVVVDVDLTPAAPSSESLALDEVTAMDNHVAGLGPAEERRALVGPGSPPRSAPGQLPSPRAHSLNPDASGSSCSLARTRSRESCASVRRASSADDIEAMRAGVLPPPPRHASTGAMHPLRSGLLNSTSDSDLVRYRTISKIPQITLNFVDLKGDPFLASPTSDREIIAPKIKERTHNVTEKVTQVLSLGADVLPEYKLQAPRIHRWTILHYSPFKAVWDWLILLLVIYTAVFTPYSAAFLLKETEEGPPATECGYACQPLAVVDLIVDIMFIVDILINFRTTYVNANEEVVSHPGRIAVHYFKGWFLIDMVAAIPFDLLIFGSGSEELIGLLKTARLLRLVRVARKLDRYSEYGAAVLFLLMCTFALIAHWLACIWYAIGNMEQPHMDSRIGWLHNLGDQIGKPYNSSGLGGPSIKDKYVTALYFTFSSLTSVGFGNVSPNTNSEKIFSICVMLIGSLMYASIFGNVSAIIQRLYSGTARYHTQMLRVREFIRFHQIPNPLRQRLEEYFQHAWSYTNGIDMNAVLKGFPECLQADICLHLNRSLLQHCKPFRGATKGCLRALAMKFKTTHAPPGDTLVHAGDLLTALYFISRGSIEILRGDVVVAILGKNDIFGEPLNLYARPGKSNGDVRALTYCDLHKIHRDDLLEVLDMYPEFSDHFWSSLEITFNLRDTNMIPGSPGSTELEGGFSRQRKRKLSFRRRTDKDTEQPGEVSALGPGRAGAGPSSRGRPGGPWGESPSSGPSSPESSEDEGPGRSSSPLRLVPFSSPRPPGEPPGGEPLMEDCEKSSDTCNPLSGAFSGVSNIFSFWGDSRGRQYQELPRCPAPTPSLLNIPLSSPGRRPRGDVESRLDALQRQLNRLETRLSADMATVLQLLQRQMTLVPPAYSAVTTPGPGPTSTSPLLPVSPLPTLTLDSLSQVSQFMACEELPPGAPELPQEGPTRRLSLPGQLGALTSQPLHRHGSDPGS

Structure (SMILES) | hERG current change (%, negative = inhibition) at 1uM [%]
O=C(NCCN1CCOCC1)c1cc(-c2cccc(Cl)c2)on1 | 8.97
CCc1ccc(NC(=O)C(NS(=O)(=O)c2cccc3nsnc23)c2ccccc2)cc1 (centres unmarked) | -0.0201
O=C(O)CC/C(=N/NC(=O)c1cccs1)c1ccccc1 | 12.6
CCOc1ccc(/C(O)=C2/C(=O)C(=O)N(c3ncccn3)C2c2ccccc2)cc1 (centres unmarked) | 6.57
O=S(=O)(c1ccc(Cl)cc1)c1cnc(-c2cccnc2)nc1-c1ccccc1 | 3.26
O=C1NN(c2ccccc2)C(=O)/C1=C\c1cccn1-c1ccc(Cl)c([N+](=O)[O-])c1 | 6.1
Cc1ccc(-n2c(C)cc(/C=C3/C(=O)NC(=O)N(C)C3=O)c2C)cc1 | 15.4
Cc1cccc(CN2C(=O)c3ccccc3Sc3ccc(C(=O)NCCCN4CCOCC4)cc32)c1 | 11.9
CC(C)CC(=O)NC1(C(F)(F)F)C(=O)Nc2c1c(=O)n(C)c(=O)n2C (centres unmarked) | 9.07
O=C1c2ccccc2C(=O)N1CCCON1C(=O)c2ccccc2C1=O | 0.362
Cc1cc(NC(=O)CSc2nccn2C)n(-c2ccccc2)n1 | 13
CN(C)S(=O)(=O)c1ccc(C(=O)NCC2(N3CCCCC3)CCCCC2)cc1 | 4.22
O=C(Nc1nccs1)C1(c2ccc(Cl)cc2)CC1 | 9.12
O=[N+]([O-])c1cc(S(=O)(=O)c2ccc([O-])c([N+](=O)[O-])c2)ccc1[O-].[Na+] | 18.4
Cc1cc(C(=O)N2CCN(c3ccccn3)CC2)c(C)o1 | 4.33
Cc1nc(NC(=O)c2ccc(F)cc2)nc2cc3c(cc12)OCO3 | 5.87
CCCC(=O)NC(=S)Nc1ccccc1C(F)(F)F | 12.2
O=C1NC(=O)C(=Cc2ccc3c(c2)OCO3)C(=O)N1 | 13.3
Cc1cccc(-c2nn(-c3ccccc3)cc2C(=O)Nc2cccc(S(=O)(=O)NC3=NCCC3)c2)c1 | 9.34
O=C(CSc1ccc2ccccc2c1)Nn1cnnc1 | 15.4
CC1CCCC(C)N1NC(=O)c1cccc(S(=O)(=O)N2CCc3ccccc32)c1 (centres unmarked) | 13.9
CC(C)C(NC(=O)CCNC(=O)c1ccccc1Cl)c1nc2ccccc2[nH]1 (centres unmarked) | 1.56
Cc1nc(-c2noc(-c3ccccc3Cl)n2)c(C(F)(F)F)o1 | 12.2

Structure (SMILES) | hERG current change (%, negative = inhibition) at 1uM [%]
O=C(c1cccc([N+](=O)[O-])c1)N1CCCC(C(=O)N2CCc3ccccc3C2)C1 (centres unmarked) | -3.29
CC1CC(C)CN(C(=O)Cn2c(-c3nonc3N)nc3ccccc32)C1 (centres unmarked) | 5.48
CC1(C)Cc2cccc(OCC(=O)Nc3cc(C(F)(F)F)ccc3N3CCOCC3)c2O1 | 10.7
COc1ccc(Cc2nnc(NC(=O)CSc3ccc(C)cc3)s2)cc1 | 21
Nc1nc2ncc(C(=O)c3cc(Cl)cc(Cl)c3O)cc2s1 | 7.66
O=C(COC(=O)Cc1ccccc1F)Nc1cccc(F)c1 | 12.1
Cc1ccc(OCCNC(=O)c2ccc3ccccc3n2)cc1 | 0.207
Cc1noc(C(=O)NCc2ccco2)c1Cl | 1.53
Cc1ccc(N=C2c3ccccc3C(=O)C2[N+](=O)[O-])cc1C (centres unmarked) | 11.5
CCc1ccc(NC(=S)N2CCNC(=O)C2CC(=O)OC)cc1 (centres unmarked) | -0.278
O=C(Cn1c(-c2cscn2)nc2ccccc21)Nc1cc(F)ccc1F | 11.9
COc1ccccc1CNC(=O)CSc1ccsc1[N+](=O)[O-] | 6.97
Cc1cccc(CSc2nnc([C@@H]3CCCN3)o2)c1.Cl | -1.5
CCOC(=O)c1ccc(N/C=C\C(=O)c2cccc(OC)c2)cc1 | 8.2
CCOC(=O)C1=C(C)N=c2s/c(=C\c3cccc(OCC(=O)O)c3)c(=O)n2C1c1ccccc1OC (centres unmarked) | 14.5
CSc1ccccc1NC(=O)C1CCCO1 (centres unmarked) | 3.29
Cc1ccc(CCNC(=O)C2CCN(C(=O)c3sccc3-n3cccc3)CC2)cc1 | -4.63
Cc1cc(NC(=O)C2C3C(=O)N(Cc4ccc(Cl)cc4)C(C(=O)NCc4ccccc4)C34C=CC2(C)O4)no1 (centres unmarked) | 4.72
CCCCNS(=O)(=O)/C=C/c1ccccc1 | 13.9
COc1ccc(OC)c(/C=C/C(=O)OCC(=O)N2CCCC2)c1 | 12.3
O=C1CC(c2ccc(S(=O)(=O)NC3CC3)cc2)CN1 (centres unmarked) | 2.43
Cc1cc(Cl)ccc1Oc1nccc(N(C)C)c1C#N | 5.45
COC(=O)C(C)Oc1ccc2c(-c3cccc([N+](=O)[O-])c3)cc(=O)oc2c1 (centres unmarked) | -8.25

Structure (SMILES) | hERG current change (%, negative = inhibition) at 1uM [%]
O=C(Nn1c(SCc2ccc([N+](=O)[O-])cc2)nc2ccccc2c1=O)c1ccc(F)cc1 | 7.8
COc1ccc(COC(=O)c2cccc(S(=O)(=O)N3CCN(C(C)=O)CC3)c2)cc1F | 10.7
Cc1cc(C=C2C(=O)N(C)C(=S)N(C)C2=O)c(C)n1-c1ccncc1 | 11.3
S=c1nc(-c2cccc(Br)c2)[nH][nH]1 | 11.2
CCCS(=O)(=O)N1CCN(C(=O)c2ccccc2F)CC1 | 0.177
COc1cc(C(=O)NNC(=O)COc2ccccc2Cl)ccc1OCC(=O)N1CCOCC1 | 6.06
CC(C)COc1cc(=O)[nH]c(SCC(C)C)n1 | -1.08
CC(=O)N/N=c1\sc2ccccc2n1C | 9.01
C=CCNC(=O)CSc1nc2sc3c(c2c(=O)n1CCC)CCC3 | 18.7
O=C(Nc1ccc(S(=O)(=O)N2CCOCC2)cc1)c1ccc(Br)o1 | -25.9
COc1ccccc1N1CCN(C/C(O)=C(\C#N)c2nc(-c3ccccc3)cs2)CC1 | 19.5
CCC(=O)Nc1c(-c2ccccc2Cl)c(=O)c2ccccc2n1C | 14.4
Cc1nn(Cc2ccccc2)c(C)c1CCC(=O)O | 2.37
COC(=O)CCC(=O)OC1(C)C(=O)C=C2C=C(C3CC3)N(CCCCO)C=C2C1=O (centres unmarked) | 8.61
COc1cccc(OC)c1C(=O)Nc1nnc(-c2ccc(F)cc2)s1 | 9.13
Cc1cccc(C)c1OCc1nnc(SCC(=O)Nc2ccccc2F)o1 | 12.3
O=C(NCC1COc2ccccc2O1)c1ccc(Br)s1 (centres unmarked) | 13.9
COc1cccc(C2/C(=C(\O)c3ccc4c(c3)OCCO4)C(=O)C(=O)N2CC2CCCO2)c1 (centres unmarked) | 1.12
S=c1[nH]nc(COc2ccccc2)n1/N=C/c1cccc(Br)c1 | 10.3
O=S(=O)(Nc1ccc2[nH]ncc2c1)c1ccccc1Cl | 17.5
Cc1c(OCc2nn[nH]n2)ccc2c(-c3ccccc3)cc(=O)oc12 | 10.3
O=C(O)C1CC(=O)N(c2ccc(OCc3ccc(Br)cc3)cc2)C1 (centres unmarked) | 10.5
O=C(CSc1nnnn1-c1ccc(Cl)cc1)NC(=O)Nc1ccc2c(c1)OCCO2 | 8.09

Structure (SMILES) | hERG current change (%, negative = inhibition) at 1uM [%]
O=C(Nc1ccncc1)Nc1ccc(F)cc1 | 14.2
COc1ccccc1N1CCN(CC(O)COc2ccc3c(c2)CCC3)CC1.Cl (centres unmarked) | -37.5
Cc1ccc(C)c(NC(=O)c2cccc(Oc3ccc([N+](=O)[O-])cc3Cl)c2)c1 | -13.9
COC(=O)/C=C1/SC(=Nc2ccc(C)cc2C)NC1=O | 6.86
O=C(NC1CCSc2ccccc21)c1ccccc1Br (centres unmarked) | 6.64
COc1cccc(N(CC(=O)NC(C)(C)C)C(=O)C2CSC(=O)C2)c1 (centres unmarked) | -1.07
CNS(=O)(=O)c1cccc(C(=O)OCC(=O)N2CCCC2)c1 | 12.6
O=[N+]([O-])c1ccc(N2CCCC2)cc1NCc1ccccc1 | 11.4
NC(=O)NC(=O)c1nccnc1C(=O)O | 12
CCOC(=O)CC1=C(C(=O)OCC)C(c2ccc(C)o2)C(C#N)=C(N)O1 (centres unmarked) | 6.83
CCN1C(=O)[C@H]2[C@@H](c3ccc(Cl)cc3)N3C(=O)CN(CCOC)C(=O)[C@@]3(C)[C@H]2C1=O | 5.13
CCOc1ccc(Cc2c(O)[nH]c(=O)[nH]c2=O)cc1 | 16.7
O=C(CCn1cnnn1)Nc1ccccc1 | 10.7
CN(C)S(=O)(=O)n1cc(/C=C(\NC(=O)c2ccccc2)C(=O)NCCN2CCOCC2)c2ccccc21 | 8.99
Nn1c(SCc2cc([N+](=O)[O-])cc3c2OCOC3)nnc1-c1cccnc1 | 9.15
Cn1c(SCC(=O)NC2CCCC2)nc2cccnc21 | 10.4
CC1Cc2ccccc2N1C(=O)CN(C)CC(=O)Nc1cccc(F)c1 (centres unmarked) | -2.26
COc1ccc(-c2ccc(SC)nn2)cc1 | 7.64
O=S(=O)(c1ccc(Nc2ccc3c(c2)OCO3)nc1)N1CCOCC1 | 2.17
NC(=O)[C@@H]1CCCNc2c(I)cc([N+](=O)[O-])cc2C(=O)N[C@@H](CO)C(=O)NCC(=O)N1 | 0.355
